# Experimental data as given in the supplement of paper PMC8728848.
# The other results are listed elsewhere or left out.
# Assays:
# Assay in all cases: glycan array binding signal (z-score within array); higher = stronger binding
# Details in all cases: glycan notation: IUPAC condensed, linker removed
# [1] = molecular target: Neu5Ac(a2-3)Gal(b1-3)GalNAc
# In short: (§1)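 Arrays were curated from the Consortium for Functional Glycomics database, 3228 in total, and kept only where the protein sequence was available. Binding is expressed as a within-array Z-score. This score was averaged across arrays of the same protein sequence at different concentrations or buffers and across linkers, and negative values can be read as non-binding.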
# [2] = molecular target: Neu5Ac(a2-3)Gal(b1-3)GalNAc(b1-3)Gal(a1-4)Gal(b1-4)Glc
# In short: as §1
# [3] = molecular target: Neu5Ac(a2-3)Gal(b1-3)GalNAc(b1-4)[Neu5Ac(a2-3)]Gal(b1-4)Glc
# In short: as §1
# [4] = molecular target: Neu5Ac(a2-3)Gal(b1-3)GalNAc(b1-4)[Neu5Ac(a2-8)Neu5Ac(a2-3)]Gal(b1-4)Glc
# In short: as §1
# [5] = molecular target: Neu5Ac(a2-3)Gal(b1-3)GalNAc6S
# In short: as §1
# [6] = molecular target: Neu5Ac(a2-3)Gal(b1-3)GlcNAc
# In short: as §1
# [7] = molecular target: Neu5Ac(a2-3)Gal(b1-3)GlcNAc(b1-2)Man
# In short: as §1
# [8] = molecular target: Neu5Ac(a2-3)Gal(b1-3)GlcNAc(b1-2)Man(a1-3)[GlcNAc(b1-4)][Neu5Ac(a2-3)Gal(b1-3)GlcNAc(b1-2)Man(a1-6)]Man(b1-4)GlcNAc(b1-4)GlcNAc
# In short: as §1
# [9] = molecular target: Neu5Ac(a2-3)Gal(b1-3)GlcNAc(b1-2)Man(a1-3)[Neu5Ac(a2-3)Gal(b1-3)GlcNAc(b1-2)Man(a1-6)]Man(b1-4)GlcNAc(b1-4)GlcNAc
# In short: as §1
# [10] = molecular target: Neu5Ac(a2-3)Gal(b1-3)GlcNAc(b1-3)Gal(b1-3)GlcNAc
# In short: as §1
# [11] = molecular target: Neu5Ac(a2-3)Gal(b1-3)GlcNAc(b1-3)Gal(b1-4)GlcNAc
# In short: as §1
# [12] = molecular target: Neu5Ac(a2-3)Gal(b1-3)GlcNAc(b1-3)GalNAc
# In short: as §1
# [13] = molecular target: Neu5Ac(a2-3)Gal(b1-3)GlcNAc(b1-4)Gal(b1-4)Glc
# In short: as §1
# [14] = molecular target: Neu5Ac(a2-3)Gal(b1-3)GlcNAc(b1-6)GalNAc
# In short: as §1
# [15] = molecular target: Neu5Ac(a2-3)Gal(b1-3)GlcNAc6S
# In short: as §1
# [16] = molecular target: Neu5Ac(a2-3)Gal(b1-3)[Fuc(a1-4)]GlcNAc
# In short: as §1
# [17] = molecular target: Neu5Ac(a2-3)Gal(b1-3)[Fuc(a1-4)]GlcNAc(b1-3)Gal(b1-3)[Fuc(a1-4)]GlcNAc
# In short: as §1
# [18] = molecular target: Neu5Ac(a2-3)Gal(b1-3)[Fuc(a1-4)]GlcNAc(b1-3)Gal(b1-4)[Fuc(a1-3)]GlcNAc
# In short: as §1
# [19] = molecular target: Neu5Ac(a2-3)Gal(b1-3)[GlcNAc(b1-6)]GalNAc
# In short: as §1
# [20] = molecular target: Neu5Ac(a2-3)Gal(b1-3)[Neu5Ac(a2-6)]GalNAc
# In short: as §1
# [21] = molecular target: Neu5Ac(a2-3)Gal(b1-3)[Neu5Ac(a2-6)]GlcNAc(b1-3)[Fuc(a1-3)[Gal(b1-4)]GlcNAc(b1-6)]Gal(b1-4)Glc
# In short: as §1
# [22] = molecular target: Neu5Ac(a2-3)Gal(b1-3)]Neu5Ac(a2-3)Gal(b1-4)]GlcNAc
# In short: as §1
# [23] = molecular target: Neu5Ac(a2-3)Gal(b1-4)Glc
# In short: as §1
# [24] = molecular target: Neu5Ac(a2-3)Gal(b1-4)GlcNAc
# In short: as §1
# [25] = molecular target: Neu5Ac(a2-3)Gal(b1-4)GlcNAc(b1-2)Man
# In short: as §1
# [26] = molecular target: Neu5Ac(a2-3)Gal(b1-4)GlcNAc(b1-2)Man(a1-3)[GlcNAc(b1-4)][Neu5Ac(a2-3)Gal(b1-4)GlcNAc(b1-2)Man(a1-6)]Man(b1-4)GlcNAc(b1-4)GlcNAc
# In short: as §1
# [27] = molecular target: Neu5Ac(a2-3)Gal(b1-4)GlcNAc(b1-2)Man(a1-3)[Neu5Ac(a2-3)Gal(b1-4)GlcNAc(b1-2)Man(a1-6)]Man(b1-4)GlcNAc(b1-4)GlcNAc
# In short: as §1
# [28] = molecular target: Neu5Ac(a2-3)Gal(b1-4)GlcNAc(b1-2)Man(a1-3)[Neu5Ac(a2-3)Gal(b1-4)GlcNAc(b1-2)Man(a1-6)]Man(b1-4)GlcNAc(b1-4)[Fuc(a1-6)]GlcNAc
# In short: as §1
# [29] = molecular target: Neu5Ac(a2-3)Gal(b1-4)GlcNAc(b1-2)Man(a1-3)[Neu5Ac(a2-6)Gal(b1-4)GlcNAc(b1-2)Man(a1-6)]Man(b1-4)GlcNAc(b1-4)GlcNAc
# In short: as §1
# [30] = molecular target: Neu5Ac(a2-3)Gal(b1-4)GlcNAc(b1-2)[Neu5Ac(a2-3)Gal(b1-4)GlcNAc(b1-4)]Man(a1-3)[GlcNAc(b1-4)][Neu5Ac(a2-3)Gal(b1-4)GlcNAc(b1-2)[Neu5Ac(a2-3)Gal(b1-4)GlcNAc(b1-6)]Man(a1-6)]Man(b1-4)GlcNAc(b1-4)GlcNAc
# In short: as §1
# [31] = molecular target: Neu5Ac(a2-3)Gal(b1-4)GlcNAc(b1-2)[Neu5Ac(a2-3)Gal(b1-4)GlcNAc(b1-4)]Man(a1-3)[GlcNAc(b1-4)][Neu5Ac(a2-3)Gal(b1-4)GlcNAc(b1-4)Man(a1-6)]Man(b1-4)GlcNAc(b1-4)GlcNAc
# In short: as §1
# [32] = molecular target: Neu5Ac(a2-3)Gal(b1-4)GlcNAc(b1-2)[Neu5Ac(a2-3)Gal(b1-4)GlcNAc(b1-6)]Man(a1-6)[Neu5Ac(a2-3)Gal(b1-4)GlcNAc(b1-2)Man(a1-3)]Man(b1-4)GlcNAc(b1-4)GlcNAc
# In short: as §1
# [33] = molecular target: Neu5Ac(a2-3)Gal(b1-4)GlcNAc(b1-2)[Neu5Ac(a2-3)Gal(b1-4)GlcNAc(b1-6)]Man(a1-6)[Neu5Ac(a2-3)Gal(b1-4)GlcNAc(b1-2)Man(a1-3)][GlcNAc(b1-4)]Man(b1-4)GlcNAc(b1-4)GlcNAc
# In short: as §1
# [34] = molecular target: Neu5Ac(a2-3)Gal(b1-4)GlcNAc(b1-3)Gal
# In short: as §1
# [35] = molecular target: Neu5Ac(a2-3)Gal(b1-4)GlcNAc(b1-3)Gal(b1-3)GlcNAc
# In short: as §1
# [36] = molecular target: Neu5Ac(a2-3)Gal(b1-4)GlcNAc(b1-3)Gal(b1-4)GlcNAc
# In short: as §1
# [37] = molecular target: Neu5Ac(a2-3)Gal(b1-4)GlcNAc(b1-3)Gal(b1-4)GlcNAc(b1-2)Man(a1-3)[Neu5Ac(a2-3)Gal(b1-4)GlcNAc(b1-3)Gal(b1-4)GlcNAc(b1-2)Man(a1-6)]Man(b1-4)GlcNAc(b1-4)GlcNAc
# In short: as §1
binder,measurement,setting,value
PX14367B-bvu-516-23-516 (Bacteroides vulgatus) (protein) LDTIPTTYVDAGSVFGKTGDAEKVLNGGWNYLMETFNSYANPGYGAMLRANDAMGSDVVLNSKYGFRTHNEFSAIYGKGGTNTLSWLLAYRVINDCNGVLDNIDAAEGTQADRNRIKGQALALRGFLYLHLASCYSFAIDKDPDAVCAPIYTQSTDETIAAEGKPASSVSEVYAQSINDLEEALELIPETYVRDAKHKIDNEVVLGILSRACLYARQWEKAKTYSDKLLAKDNYLMTESEYKAGFNSVDNKEWIWGHAQTNDQSNASYQFHYLDTTTKGSYYYSFNVDPYFRDLFEDGDYRKEMLFWATDPGADVESAAYVWMRNSKFRFRDIENQLGDIVLMRVAEIYLINAEAKAHLNDPDAINKLNDLKTARGAKTIHTNLSQQDLLETIWLERRKELWGEGFSLIDIIRNQQTVVRNAYPEGPIDYIYTDENGQTHTLKKKTQGHRFFNFPDKSAFCPNSKYYLYRITDSEELANKNLYKDHPKLSIYTK,glycan array binding signal (z-score),[1],-0.354
same,glycan array binding signal (z-score),[2],-0.352
same,glycan array binding signal (z-score),[3],-0.325
same,glycan array binding signal (z-score),[4],-0.209
same,glycan array binding signal (z-score),[5],-0.299
same,glycan array binding signal (z-score),[6],-0.261
same,glycan array binding signal (z-score),[7],-0.303
same,glycan array binding signal (z-score),[8],-0.213
same,glycan array binding signal (z-score),[9],-0.276
same,glycan array binding signal (z-score),[10],-0.309
same,glycan array binding signal (z-score),[11],-0.172
same,glycan array binding signal (z-score),[12],-0.339
same,glycan array binding signal (z-score),[13],-0.367
same,glycan array binding signal (z-score),[14],-0.346
same,glycan array binding signal (z-score),[15],-0.318
same,glycan array binding signal (z-score),[16],-0.337
same,glycan array binding signal (z-score),[17],-0.227
same,glycan array binding signal (z-score),[18],-0.243
same,glycan array binding signal (z-score),[19],-0.228
same,glycan array binding signal (z-score),[20],-0.28
same,glycan array binding signal (z-score),[21],-0.413
same,glycan array binding signal (z-score),[22],-0.157
same,glycan array binding signal (z-score),[23],-0.179
same,glycan array binding signal (z-score),[24],-0.381
same,glycan array binding signal (z-score),[25],-0.297
same,glycan array binding signal (z-score),[26],-0.342
same,glycan array binding signal (z-score),[27],-0.248
same,glycan array binding signal (z-score),[28],-0.241
same,glycan array binding signal (z-score),[29],0.471
same,glycan array binding signal (z-score),[30],-0.258
same,glycan array binding signal (z-score),[31],-0.262
same,glycan array binding signal (z-score),[32],-0.158
same,glycan array binding signal (z-score),[33],-0.317
same,glycan array binding signal (z-score),[34],-0.264
same,glycan array binding signal (z-score),[35],-0.328
same,glycan array binding signal (z-score),[36],-0.204
same,glycan array binding signal (z-score),[37],-0.164
